Data reported in article PMC4336329 (PLoS ONE, 2015).
About 2,200 (0.71%) of roughly 310,000 compounds showed an effect of 50% or more. Effects have a minus sign here. This is one part of the list.

Molecular target: human ether-à-go-go-related gene (hERG) potassium channel (human, UniProt Q12809)
Test: primary screen, population patch clamp on CHO cells stably expressing hERG

Chain of human ether-à-go-go-related gene (hERG) potassium channel (Q12809 whole entry, looked up): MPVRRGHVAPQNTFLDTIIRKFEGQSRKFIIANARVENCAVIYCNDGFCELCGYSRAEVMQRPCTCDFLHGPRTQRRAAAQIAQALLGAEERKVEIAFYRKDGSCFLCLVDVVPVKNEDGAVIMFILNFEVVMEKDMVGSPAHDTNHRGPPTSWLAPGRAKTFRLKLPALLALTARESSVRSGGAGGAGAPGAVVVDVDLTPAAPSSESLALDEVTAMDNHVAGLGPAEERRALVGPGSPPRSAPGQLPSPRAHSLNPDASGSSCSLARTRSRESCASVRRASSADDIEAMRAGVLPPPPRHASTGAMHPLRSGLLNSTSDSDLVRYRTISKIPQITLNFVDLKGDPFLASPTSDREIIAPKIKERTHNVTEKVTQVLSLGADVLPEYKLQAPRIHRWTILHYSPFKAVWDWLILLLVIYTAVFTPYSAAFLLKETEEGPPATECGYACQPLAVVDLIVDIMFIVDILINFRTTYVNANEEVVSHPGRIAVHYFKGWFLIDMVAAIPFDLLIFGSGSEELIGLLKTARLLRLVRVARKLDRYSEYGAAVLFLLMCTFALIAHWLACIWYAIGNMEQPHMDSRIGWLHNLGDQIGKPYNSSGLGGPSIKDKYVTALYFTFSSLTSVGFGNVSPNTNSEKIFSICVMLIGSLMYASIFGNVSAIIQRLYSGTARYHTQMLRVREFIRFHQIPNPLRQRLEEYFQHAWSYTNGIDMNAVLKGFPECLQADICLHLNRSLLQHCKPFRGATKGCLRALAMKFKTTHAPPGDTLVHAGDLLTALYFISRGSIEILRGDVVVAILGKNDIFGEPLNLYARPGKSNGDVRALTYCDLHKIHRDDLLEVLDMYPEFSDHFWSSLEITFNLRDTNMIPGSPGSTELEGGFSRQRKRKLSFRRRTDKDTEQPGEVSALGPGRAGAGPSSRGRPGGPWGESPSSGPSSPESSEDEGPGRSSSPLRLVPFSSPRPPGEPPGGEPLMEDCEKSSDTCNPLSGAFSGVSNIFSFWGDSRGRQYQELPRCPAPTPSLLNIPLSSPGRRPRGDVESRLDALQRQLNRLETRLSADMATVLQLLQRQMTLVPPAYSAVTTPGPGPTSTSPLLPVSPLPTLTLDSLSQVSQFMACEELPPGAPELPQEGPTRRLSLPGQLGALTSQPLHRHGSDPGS

| Structure (SMILES) | hERG current change (%, negative = inhibition) at 1uM |
| --- | --- |
| Cc1ccc(C2=NOC(C)(c3sc(-c4ccc(Cl)cc4)nc3C)C2)cc1 (stereo not drawn) | 2.1% |
| COc1cc(CNCc2ccc(Br)cc2)cc(OC)c1.O=C(O)C(=O)O | 14.6% |
| Cc1nc2c(C(=O)N3CCOCC3)cnn2c(C)c1Cc1ccc(Cl)cc1 | -7.05% |
| Cc1ccc(C)c(NC(=O)CSc2nnc(-c3n[nH]c4ccccc34)o2)c1 | 1.23% |
| CC(=O)N1CCc2c(sc(NC(=O)Cc3ccccc3)c2C(N)=O)C1 | 4.87% |
| CC1(C)CC(=O)C(C=Nc2ccc(N)cc2)=C(O)C1 | 6.91% |
| COc1ccc(C)cc1S(=O)(=O)Nc1cc2c3c(c1)CCN3C(=O)CC2 | -0.279% |
| C=CCCC(=O)N1CCC(n2nccc2NC(=O)c2ccc(OC)cc2)CC1 | 10.1% |
| Cc1cccc(N/C(N)=N/c2nc(C)c(Cc3ccccc3)c(=O)[nH]2)c1 | 25.4% |
| Cc1[nH]n(-c2ncc(-c3ccccc3)s2)c(=O)c1C(c1ccc(Br)cc1)C(C#N)C#N (stereo not drawn) | 4.29% |
| COc1ccc(OC)c(NC(=O)CCc2c[nH]c3ccccc23)c1 | 6.63% |
| Cc1cc(C)n(CC(=O)c2ccc(Br)cc2)c(=O)c1C#N | -2.8% |
| NC(=O)c1ccccc1N/C=C/C(=O)c1cccs1 | 5.49% |
| COc1cc(C)c(CN2CCN(c3ncccn3)CC2)cc1C | 6.18% |
| CCOc1cc(C2C(C#N)=C(N)Oc3c2c(=O)oc2ccccc32)ccc1OC(=O)c1cccs1 (stereo not drawn) | 3% |
| Fc1ccc(NC(=S)N2CCN(c3ncccn3)CC2)cc1 | 16.8% |
| COc1cc(F)ccc1S(=O)(=O)n1c(C)nc2ccccc21 | 4.81% |
| CC1(c2ccccc2)NC(=O)N(CC(=O)Nc2cccc(/C=C/c3ccccn3)c2)C1=O (stereo not drawn) | 12% |
| CCCCCCCCOC(=O)C1=C(C)Nc2nnnn2C1c1cccs1 (stereo not drawn) | -1.64% |
| CCCc1cc(-c2nc(N)ncc2-c2ccc3c(c2)OCCCO3)c(O)cc1OC | -1.77% |
| Cc1ccc(NC(=O)COC(=O)COc2cccc3c2OC(C)(C)C3)c(C)c1 | 10.5% |
| C1CCCCCC(NCCN2CCNCC2)CCCCC1 | 9.34% |
| COc1ccc(NC(=O)C2CCCO2)cc1Cl (stereo not drawn) | 0.7% |

| Structure (SMILES) | hERG current change (%, negative = inhibition) at 1uM |
| --- | --- |
| COc1ccc(OC)c(Nc2nc3ccc(C)cc3n3cnnc23)c1 | 1.7% |
| Cn1nc(-c2ccc(N3CCOCC3)c(NS(=O)(=O)c3ccc(Cl)cc3)c2)c2ccccc2c1=O | 15.2% |
| COc1cc(/C=C2/C(=N)N3N=C(C(C)C)SC3=NC2=O)ccc1OS(=O)(=O)c1ccccc1 | 13.5% |
| COC(=O)Nc1nnc(COc2ccccc2)s1 | 11.3% |
| CCOC(=O)N/N=C(/c1ccccc1)C1CCCCC1 | 15.5% |
| O=C(Nc1ccccc1F)c1ccc(CNS(=O)(=O)c2cccc(C(F)(F)F)c2)cc1 | 2.38% |
| C/C(=N\OCc1cccc(C(=O)O)c1)c1ccc(Cl)cc1 | 7.01% |
| CCOc1ccc(-c2nc(N)ncc2-c2ccc(OC)cc2)c(O)c1 | 5.69% |
| CCOC(=O)C1(Cc2ccc(OC)cc2)CCN(C(=O)c2cc(C)on2)CC1 | 4.83% |
| CC(=O)Nc1sc2c(c1C#N)CCCC2 | 11.9% |
| CS(=O)(=O)N1CCC(Oc2ccccc2C(=O)N2CCNC(=O)C2)CC1 | 6.37% |
| O=C(CN1CCN(c2ncccn2)CC1)N1CCCC1.O=C(O)C(=O)O | 6.88% |
| Cc1ccc(CNc2nc(-c3cccnc3)nc3ccccc23)cc1 | 11.3% |
| O=C(CCNS(=O)(=O)c1ccc(Br)cc1)NCC1CCCO1 (stereo not drawn) | 13.9% |
| Cc1cc2nc3c(=O)n(CCc4ccccc4)c(=O)[nH]c3nc2cc1N | 4.29% |
| O=c1cc(-c2ccccc2Cl)oc2cc(O)cc(O)c12 | 15.1% |
| Cc1cc(C(=O)OC(C)C(=O)N2CCc3ccccc32)ccc1[N+](=O)[O-] (stereo not drawn) | -7.26% |
| CCOc1ccc(C(=O)NC(=S)Nc2cc(C)ccn2)cc1[N+](=O)[O-] | 14% |
| Cc1nc(NC(=O)C2CC2)sc1C(=O)N1CCCCC1 | 4.1% |
| CCc1ccc(N(CC(=O)NC2CCCC2)S(=O)(=O)c2c(C)noc2C)cc1 | 0.971% |
| O=C(c1cc2c(=O)n3ccccc3nc2s1)N1CCc2ccccc2C1 | 7.55% |
| O=C(OC1CCCCC1=O)c1cccc(S(=O)(=O)N2CCOCC2)c1 (stereo not drawn) | 10.4% |
| COc1cccc(-n2c(=S)[nH]c3ccccc3c2=O)c1 | 13.6% |

| Structure (SMILES) | hERG current change (%, negative = inhibition) at 1uM |
| --- | --- |
| c1cncc(-c2noc(-c3ccco3)n2)c1 | 7.71% |
| O=C(O)c1cc(-c2ccccc2Cl)n[nH]1 | 3.35% |
| CN(O)/C=N/C(=S)Nc1ccc(Cl)cc1Cl | 15% |
| O=C(Cc1cccc2ccccc12)N/N=C/C=C/c1cccc([N+](=O)[O-])c1 | 6.42% |
| CCCCCNC(=O)Cc1ccc(S(=O)(=O)N2CCOCC2)s1 | 13% |
| COC(=O)CC1C(=O)NCCN1C(=S)NC(=O)CCc1ccccc1 (stereo not drawn) | 10.7% |
| CC(=O)c1cc(-c2ccccc2)n(CC(=O)NC(C)(C)C)c1C | 9.66% |
| Cn1nc(C(=O)Nc2nnc(C3CC3)s2)c2ccccc2c1=O | 17.9% |
| CCN1C(=O)c2cccc3c(Cl)ccc1c23 | 2.91% |
| Cc1cc(Nc2ccc(N3CCC(C)CC3)cc2)n2ncnc2n1 | 4.95% |
| Cc1csc(NC(=O)CNS(=O)(=O)c2cccs2)n1 | 18.6% |
| COC(=O)C1=C(C)N(CCCC(=O)O)C(=O)NC1c1ccc(OC)cc1 (stereo not drawn) | 10.9% |
| CCOCCCn1c(=S)[nH]c2ncccc2c1=O | 14.7% |
| CCOC(=O)c1c(-c2ccccc2)oc2ccc(O)c(CN3CCN(C)CC3)c12 | -3.04% |
| C=CCN(CC=C)C(=S)NCCc1ccc(OC)c(OC)c1 | 6.97% |
| CCCN1Cc2cccc(C(=O)NCc3cccs3)c2C1=O | 1.02% |
| O=Cc1ccc(O)c(O)c1 | 12.5% |
| COc1ccc(/C=C/C(=O)Nc2ccccc2C(F)(F)F)cc1 | 8.11% |
| Cc1cccc(C)c1OC(=O)CSc1nnc(-c2ccccc2O)o1 | -3.71% |
| O=C(NC(CO)Cc1ccccc1)c1ccccc1 (stereo not drawn) | 7.1% |
| CCCCCN(C(=O)CCC(=O)OCC(=O)N(C)c1ccccc1)c1c(N)n(CCCC)c(=O)[nH]c1=O | 6.11% |
| O=C1CCCCN1CCC(=O)N1CCCC(Nc2ccc(F)c(F)c2)C1 (stereo not drawn) | 5.61% |
| Cc1ncc(CN2CCC(n3nccc3NC(=O)c3ccccc3)CC2)s1 | 5.73% |

| Structure (SMILES) | hERG current change (%, negative = inhibition) at 1uM |
| --- | --- |
| O=C(CCCn1c(=O)c2ccccc2n(Cc2ccccc2)c1=O)NCc1ccco1 | 4.34% |
| Cc1cc(=O)oc(C)c1C(=O)OCC(=O)c1ccc(Cl)cc1 | -3.08% |
| CCOc1cc2c(C)cc(=O)oc2cc1Cl | 5.82% |
| COc1ccc([N+](=O)[O-])cc1-c1nc2ccccc2nc1-c1ccccc1 | 13.4% |
| CCOC(=O)CNC(=O)CSc1nc2sc(C)c(C)c2c(=O)n1C | 11.6% |
| COc1ccccc1OC(C)C(=O)Nc1ccc(S(=O)(=O)Nc2nccs2)cc1 (stereo not drawn) | -2.33% |
| O=C(CN1CCCC1)Nc1ccc(-c2nc3cc(NC(=O)CN4CCCC4)ccc3o2)cc1 | 9.49% |
| CC1=C(C(=O)Nc2cccc(C(=O)NC(C)C)c2)SCCO1 | 17.8% |
| COC(=O)c1cc2ccsc2n1CC(=O)N(C)c1ccccc1 | 10.1% |
| Cc1ccc(NC(=O)CCC(=O)OCCCC(F)(F)C(F)(F)F)cc1 | -2.68% |
| O=C(Cc1cccc2ccccc12)NN1C(=O)C2C(C1=O)C1C=CC2C12CC2 (stereo not drawn) | 7.67% |
| Cc1cc(C(=O)N/N=C/c2ccc(O)c([N+](=O)[O-])c2)n[nH]1 | 2.81% |
| O=C(CCNC(=O)Cn1ccc2ccccc2c1=O)NCc1ccc(F)cc1Cl | 8.73% |
| CCn1c(SCC(=O)Nc2ncc(C(F)(F)F)cc2Cl)nnc1-c1cccc(C)c1 | -6.42% |
| COc1ccc(OCc2cccc(C(=O)O)c2)cc1 | 13.7% |
| Cc1ccc(CN(CC(=O)N/N=C/c2ccccc2[N+](=O)[O-])S(=O)(=O)c2ccc(C)cc2)cc1 | 1.49% |
| COc1ccc(/C=N/OCC(=O)Nc2ccc3c(c2)OCO3)c(OC)c1 | 8.67% |
| COc1cccc(CNc2ccc3c(c2)nc(C)n3C)c1OC | 10.1% |
| O=C(NCCn1cccn1)C1CCC(=O)N(CC2CCCCC2)C1 (stereo not drawn) | 4.12% |
| CCc1ccc2c(CN3CCc4cc(OC)c(OC)cc4C3)cc(=O)oc2c1 | -12.7% |
| COc1ccc(/C=C2\C(=N)N3N=C(CC(=O)N4CCOCC4)SC3=NC2=O)cc1 | 11.4% |
